From PubChem BioAssay AID1460 (National Center for Advancing Translational Sciences (NCATS), 2008)
About 5,800 (2.1%) of roughly 270,000 compounds were called active. The inconclusive results got no clear call from the source; some entries with a clear call stand among them for comparison. The call rests on the fitted dose curve; in most records, active means well fitted inhibition curve with a large enough effect; inconclusive means small, poorly fitted or top-dose-only effect; inactive means flat fitted curve, though single readings scatter. Potencies beside an inconclusive call are fits to weak or partial responses and may not hold up.

Each compound was assayed against Microtubule-associated protein tau (Homo sapiens) (UniProt P10636) (assay: qHTS for Inhibitors of Tau Fibril Formation, Thioflavin T Binding). Conditions: recombinant tau K18 P301L (four-repeat tau fragment), heparin-induced fibrillization, ThT fluorescence; series mostly up to 57.4 µM.
UniProt P10636, sequence (P10636 whole entry, looked up, the tested form may be a part): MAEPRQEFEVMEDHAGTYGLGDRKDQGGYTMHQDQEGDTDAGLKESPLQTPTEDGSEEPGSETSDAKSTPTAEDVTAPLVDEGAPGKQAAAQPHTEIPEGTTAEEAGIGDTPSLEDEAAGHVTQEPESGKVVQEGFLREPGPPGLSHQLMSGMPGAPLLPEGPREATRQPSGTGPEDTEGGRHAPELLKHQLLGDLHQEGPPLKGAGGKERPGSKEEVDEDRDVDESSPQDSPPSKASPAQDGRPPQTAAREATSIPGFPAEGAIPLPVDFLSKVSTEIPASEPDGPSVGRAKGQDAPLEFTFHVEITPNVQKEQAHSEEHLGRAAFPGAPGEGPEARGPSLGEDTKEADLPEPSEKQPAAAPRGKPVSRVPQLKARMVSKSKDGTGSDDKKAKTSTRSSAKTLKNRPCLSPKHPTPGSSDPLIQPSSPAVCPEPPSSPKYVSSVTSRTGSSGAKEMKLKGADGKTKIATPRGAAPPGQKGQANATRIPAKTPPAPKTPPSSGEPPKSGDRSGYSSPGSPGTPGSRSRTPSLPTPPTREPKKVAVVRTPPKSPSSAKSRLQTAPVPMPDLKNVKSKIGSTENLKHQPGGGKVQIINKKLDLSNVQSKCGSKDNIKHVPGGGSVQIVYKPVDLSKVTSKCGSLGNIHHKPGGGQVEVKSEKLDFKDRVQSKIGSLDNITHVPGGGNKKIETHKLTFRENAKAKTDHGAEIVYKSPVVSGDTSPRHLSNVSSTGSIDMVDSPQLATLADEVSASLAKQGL
Summary of the method: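 Aggregation was driven by heparin (20 uM final) acting on recombinant tau […] bearing P301L in 100 mM sodium acetate pH 7; fibrils were detected with Thioflavin T.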
Further: nearly all actives have a fitted effect of over 55% in size.
Potency means the concentration at half of the fitted maximal effect; tags describe the fitted curve by direction and shape.

SMILES | Potency
Fc1ccc(-c2nc(-c3cccs3)c(-c3cccs3)[nH]2)cc1 | inactive
CC(C)(CNC(=O)COc1ccccc1Cc1ccccc1)N1CCOCC1 | inconclusive: 25.1 µM [inhibitor, single point]
C=CCNC(=O)C(C#N)c1nc2ccccc2nc1N1CCCCCC1 (stereo unspecified) | inconclusive: 28.2 µM [inhibitor, single point]
Cc1sc2ncnc(N/N=C/c3cccc(O)c3)c2c1C | inconclusive: 8.91 µM [inhibitor, partial curve]
CCOC(=O)c1sc(NC(=O)CSC(=S)N2CCOCC2)nc1C | inactive
COc1ccc(C2CC(c3ccc(Cl)c(Cl)c3)Nc3nc(N)nn32)cc1 (stereo unspecified) | inconclusive: 35.5 µM [inhibitor, partial curve]
Cc1ccccc1OCc1nc2ccccc2c(=O)n1/N=C/c1c[nH]c2ccccc12 | inactive
COc1cccc(NC(=O)c2ccc(C(=O)c3ccccc3)o2)c1 | inconclusive: 17.8 µM [inhibitor, partial curve]
O=[N+]([O-])c1ccc2c(c1N1CCCCC1)=NC1(CCCCC1)[N+]=2[O-] | active: 12.6 µM
N#CC1=C(N)SC(N)=C(C#N)C1c1ccnc2ccccc12 | active: 28.2 µM
O=C(O)c1ccc(Nc2nc(-c3ccccc3)c3cc(Br)ccc3n2)cc1 | inconclusive: 28.2 µM [inhibitor, partial curve]
CCNC(=S)Nc1ccc(NC(=O)c2ccccc2O)cc1 | inconclusive: 11.2 µM [inhibitor, partial curve]
CCN(C(=O)c1cnc(N2CCN(c3ncccn3)CC2)c2ccccc12)c1cccc(Cl)c1 | inactive
Cc1sc(NC(=O)COc2ccccc2)c(C#N)c1C | inconclusive: 17.8 µM [inhibitor, partial curve, poor fit]
CC(C)c1ccc(NC(=O)C(c2ccccc2)N(Cc2ccco2)C(=O)CC2NC(=O)NC2=O)cc1 (stereo unspecified) | inactive
COc1ccc(-c2nc3ccc(NS(C)(=O)=O)cc3o2)cc1 | inactive
Cc1cc(C)cc(Nc2ccc(C(=O)O)cc2N)c1 | inconclusive: 39.8 µM [inhibitor, single point]
COc1cccc(N2CCN(c3c(C#N)c(C(F)(F)F)nn3C)CC2)c1 | inconclusive: 28.2 µM [inhibitor, partial curve]
C[C@@H]1C[C@](C)(C(=O)c2ccc3c(c2)OCO3)C=C1c1ccc2c(c1)OCO2 | inactive
COc1ccc(S(=O)(=O)Oc2ccc3c(c2)O/C(=C\c2cccnc2)C3=O)cc1 | inconclusive: 20 µM [inhibitor, partial curve, poor fit]
C/C=C/COC(=O)c1[nH]c2c(c1C)C(=O)CC(c1ccc(N(C)C)cc1)C2 (stereo unspecified) | inconclusive: 28.2 µM [inhibitor, partial curve]
CCn1c(SCC(=O)N=Nc2c(O)[nH]c3ccccc23)nc2ccccc21 | inconclusive: 11.2 µM [inhibitor, partial curve]
CCOc1ccc(NC(=O)Cn2cc(C(=O)c3ccc(C)cc3)c(=O)c3cc4c(cc32)OCCO4)cc1 | inconclusive: 39.8 µM [inhibitor, single point]
CCOC(=O)C1(Cc2cccc(F)c2)CCN(Cc2cnn(CC)c2)CC1 | inactive

SMILES | Potency
COc1ccccc1-c1cc(C(F)(F)F)nc(NCc2ccco2)n1 | inconclusive: 35.5 µM [inhibitor, single point]
Nc1c(-c2nc(-c3ccccc3)cs2)c2ccccn2c1C(=O)c1ccc2c(c1)OCO2 | inconclusive: 3.16 µM [inhibitor, full curve]
CSC1=C(C#N)C(c2ccc3c(c2)OCO3)C2=C(CCCC2=O)N1 (stereo unspecified) | inactive
O=C(NCCCN1CCN(c2ccccc2)CC1)c1nnc(Cc2ccc(F)cc2)o1 | inactive
CCN1C(C(=O)c2ccccc2)=C(OC(=O)COc2ccccc2)c2ccccc2S1(=O)=O | inconclusive: 44.7 µM [inhibitor, single point]
Cc1nn(C)c(C(=O)NNC(=S)Nc2ccc(Cl)cc2)c1[N+](=O)[O-] | inconclusive: 14.1 µM [inhibitor, partial curve]
CCOC(=O)c1ccccc1Nc1cc(C)nc2nc(-c3ccco3)nn12 | inconclusive: 39.8 µM [inhibitor, single point]
COc1ccc(N(C(=O)Cc2cccs2)C(C(=O)NC2CCCCC2)c2cccn2C)cc1OC (stereo unspecified) | inactive
O=C(NCCc1ccccc1)c1c(O)c2cccc3c2n(c1=O)CC3 | inconclusive: 5.01 µM [inhibitor, partial curve, poor fit]
COc1cccc(CNc2ncc(-c3ccc(Br)cc3)n2C)c1 | inconclusive: 28.2 µM [inhibitor, partial curve]
CC1=CCC2C(=O)N(c3ccc(OC(=O)c4ccco4)cc3)C(=O)C2C1 (stereo unspecified) | inactive
COc1cc(NC(=O)c2cccs2)c(OC)cc1NC(=O)CCC(=O)Nc1cccc2ncccc12 | inconclusive: 39.8 µM [inhibitor, single point]
COc1cccc2sc(N3CCN(C(=O)CS(=O)(=O)c4ccc(Cl)cc4)CC3)nc12 | inconclusive: 10 µM [inhibitor, partial curve]
COc1ccc(CN(C(=O)CSc2nnc(-c3ccccc3C)o2)c2ccc(F)cc2)cc1 | inactive
CC(C)N(C(=O)c1cc2c(Cl)nc3ccccc3c2s1)C1CCCCC1 | inconclusive: 39.8 µM [inhibitor, single point]
CCOC(=O)c1scc(-c2ccc(C)cc2)c1S(=O)(=O)Nc1cccc(CC)c1 | inactive
O=C(N/N=C/c1cccc(Br)c1)c1ccc(Cn2cc(Br)cn2)o1 | inconclusive: 2.24 µM [activator, partial curve]
Cn1nnnc1SCCNCc1ccccc1OCc1ccc(Cl)cc1Cl | inconclusive: 44.7 µM [inhibitor, single point]
COc1cc(OC)cc(C(=O)Nc2ccc(-c3nc4ccccc4o3)cc2)c1 | inconclusive: 20 µM [activator, single point]
Cc1cccc(CS(=O)(=O)c2ncc(Cl)c(C(=O)Nc3nc4ccc(F)cc4s3)n2)c1 | active: 10 µM
COc1cccc(-c2nnc(SCCOc3ccc4c(C)cc(=O)oc4c3)o2)c1 | inconclusive: 2.24 µM [inhibitor, full curve]
CCCCCCCCCCCCCCCC(=O)OC(CC(=O)O)C[N+](C)(C)C (stereo unspecified) | inconclusive: 14.1 µM [inhibitor, partial curve]
COC(=O)C(C)NC(=O)N1CCN(c2nnc(C)c3c(C)n(-c4ccc(Cl)cc4)nc23)CC1 (stereo unspecified) | inactive
CSC(=NC#N)N1CCN(c2ccccc2)CC1 | inconclusive: 12.6 µM [inhibitor, partial curve]

SMILES | Potency
Cc1cc(C)cc(NC(=O)C2CCN(c3cc(C)nc4c(-c5ccc(Cl)cc5)c(C)nn34)CC2)c1 | inactive
Cc1ccc(S(=O)(=O)c2nnn3c2nc(NCc2cccs2)c2sccc23)cc1C | inactive
CC12CCC(C(=O)N(NC(=O)c3ccccc3Cl)C1=O)C2(C)C (stereo unspecified) | inactive
N#CC1=C(N)SC(N)=C(C#N)C1c1ccoc1 | active: 22.4 µM
COc1cc2c(cc1OC)C(COc1ccc(F)cc1)N(C(=O)c1ccccc1F)CC2 (stereo unspecified) | inactive
Cc1cccc(-c2nnc(SCC(=O)N3CCCc4ccccc43)o2)c1 | inconclusive: 25.1 µM [inhibitor, partial curve]
CSc1cccc(NC(=O)Cn2nc(C)c3sc4ccccc4c3c2=O)c1 | inconclusive: 17.8 µM [inhibitor, single point]
CC1=C(SCCC#N)S/C(=C2\SC(C)=C(SCCC#N)S2)S1 | active: 7.94 µM
CCN(CC)c1ccc(CNc2ccc(Br)cn2)cc1 | inactive
CCN1/C(=C2\C(=O)N(c3ccccc3)N=C2C)C=Cc2cc(C)ccc21 | inconclusive: 22.4 µM [inhibitor, partial curve]
Cc1nc(N)sc1-c1csc(Nc2ccccn2)n1 | active: 12.6 µM
Cn1c(N)c(C(=O)COC(=O)c2cc(-c3ccco3)nc3ccccc23)c(=O)n(Cc2ccccc2)c1=O | active: 12.6 µM
Cc1oc(-c2cccc(Br)c2)nc1Cn1c(=O)cc(-c2ccccc2)c2c(C)nn(C)c21 | inactive
Cn1cnnc1SC1CCCCC1NS(=O)(=O)c1ccc(Cl)cc1 (stereo unspecified) | inactive
CCn1c(SCC(=O)N2CCC(C)CC2)nnc1-c1ccccc1O | inactive
CC(=O)N1c2ccccc2C(=O)C1N1CCCCC1 (stereo unspecified) | inactive
O=C(Nc1nnc(-c2ccc3c(c2)CCCC3)o1)c1ccccc1Cl | inconclusive: 25.1 µM [inhibitor, partial curve]
COc1ccc(NC(=O)CSc2nc(N)c(C#N)cc2C#N)cc1 | inconclusive: 28.2 µM [inhibitor, partial curve]
COc1ccc2c(c1)CCC/C2=N/OC(=O)c1ccccc1OC | inconclusive: 10 µM [inhibitor, partial curve]
CCN(CC)S(=O)(=O)c1cccc(-c2n[nH]c(=S)n2/N=C/c2ccc(OC(F)F)cc2)c1 | inconclusive: 10 µM [inhibitor, partial curve]
O=C1CC(c2ccc(O[C@@H]3OC(CO)[C@@H](O)C(O)C3O)cc2)Oc2cc(O)ccc21 (stereo partly specified) | inactive
COc1ccc(-c2noc(Cn3c(=O)c4ccccc4n(CC(=O)Nc4cccc(C(F)(F)F)c4)c3=O)n2)cc1 | inconclusive: 12.6 µM [activator, partial curve, poor fit]
COc1ccc(-c2[nH]c(-c3ccc(F)cc3)nc2SCC(=O)NCc2ccco2)cc1OC | inconclusive: 20 µM [inhibitor, partial curve]
